72 compounds from PubChem BioAssay AID488969 (Vanderbilt High Throughput Screening Facility, 2010) can be followed below.

Over roughly 110,000 compounds, “z-score” has its median near -0.1; the highest 2% begin near 2. Some of the results follow.

The assay deals with Metabotropic glutamate receptor 8 (Rattus norvegicus) (UniProt P70579). Put plainly: rat mGluR8 modulators via GIRK flux, primary screen, cell-based, thallium flux, HTS (AID 488969). To be noted: HEK293 rat mGluR8, GIRK (G protein-gated inwardly rectifying potassium channel) thallium flux, FluoZin2; at 10 µM; stronger effect = higher value; submaximal glutamate (EC20) added with thallium.
UniProt P70579, sequence (P70579 whole entry, looked up): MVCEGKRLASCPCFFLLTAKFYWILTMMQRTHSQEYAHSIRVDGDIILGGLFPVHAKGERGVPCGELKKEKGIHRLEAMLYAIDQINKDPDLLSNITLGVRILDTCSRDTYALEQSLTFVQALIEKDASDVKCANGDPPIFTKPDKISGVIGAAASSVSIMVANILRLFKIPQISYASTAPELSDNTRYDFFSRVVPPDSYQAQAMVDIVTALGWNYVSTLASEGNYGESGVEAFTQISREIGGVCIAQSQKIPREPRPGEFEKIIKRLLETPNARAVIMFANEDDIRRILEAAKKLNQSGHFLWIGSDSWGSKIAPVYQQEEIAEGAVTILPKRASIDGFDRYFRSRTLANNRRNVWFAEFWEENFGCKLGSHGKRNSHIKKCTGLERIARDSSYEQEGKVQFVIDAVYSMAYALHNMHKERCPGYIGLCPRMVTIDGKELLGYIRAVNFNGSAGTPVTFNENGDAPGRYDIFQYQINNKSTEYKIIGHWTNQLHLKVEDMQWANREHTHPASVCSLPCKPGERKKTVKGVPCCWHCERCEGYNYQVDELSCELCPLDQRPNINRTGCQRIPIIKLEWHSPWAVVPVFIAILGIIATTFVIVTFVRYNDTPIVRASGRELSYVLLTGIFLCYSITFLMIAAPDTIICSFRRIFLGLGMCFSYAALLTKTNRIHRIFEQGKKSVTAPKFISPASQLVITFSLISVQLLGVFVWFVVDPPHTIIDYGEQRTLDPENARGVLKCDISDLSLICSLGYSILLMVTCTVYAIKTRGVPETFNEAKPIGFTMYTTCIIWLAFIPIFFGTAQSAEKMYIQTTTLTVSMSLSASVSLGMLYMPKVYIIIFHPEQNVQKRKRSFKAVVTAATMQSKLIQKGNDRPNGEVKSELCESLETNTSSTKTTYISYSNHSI
As for `O=C(NCc1ccco1)/C(=C/c1ccco1)NC(=O)c1ccc(Br)o1`, the z-score was -0.14.

Consider `O=C(Nc1ccccc1-c1ccccc1)NC1CCN(C(=O)N2CCOCC2)CC1`, for which the z-score came out at 0.316. In turn, `CC(=O)c1ccc(N2CCN(C(=O)C3(S(=O)(=O)c4ccc(Cl)cc4)CC3)CC2)cc1` registered a z-score of -0.122. Under `Cc1cc(Br)cn2ccnc12` stands 0.171. `CCOC(=O)c1ccc(CSc2nnc(-c3ccncc3)n2N)cc1` registered a z-score of -0.062.

`COC(=O)C1=CNC=C(C(=O)OC)C1c1ccccc1Cl`: the z-score was -1.54. The compound `Cc1nc(C)c(C(=O)N/N=C/c2cn(C)c3ccccc23)s1` displayed a z-score of 0.0943. Consider `CCCCCCC(=O)c1c(C)[nH]c(C(=O)OCC)c1C`, for which the z-score came to 0.027. For `O=C(CN1CCN(CC(=O)Nc2ccccc2C(F)(F)F)CC1)Nc1ccccc1F`, the z-score is -0.47. Compound `CC(=O)c1cc2c(cc1NC(=O)CN1CCC(Cc3ccccc3)CC1)OCO2` gave a z-score of -0.516.

As to `O=C(Nc1ccccc1)NC1(C(=O)NCCCN2CCOCC2)CCCCC1`, the z-score stood at 0.117. Under `Cc1cccc(NC(=S)NCCN2CCOCC2)c1C` stands -0.235; under `O=C(COC(=O)c1cccs1)c1ccc2c(c1)OCCO2`, -0.579; under `CC(=O)C1=C(O)C(=O)N(Cc2ccco2)C1c1ccc(F)cc1` (configuration not stated), -1.8. The compound `O=c1c(Cl)c(Cl)cnn1-c1ccccc1` gave a z-score of -0.878. Regarding `O=C(c1ccco1)N1CCn2c1nc1ccccc12`, the z-score turned out to be 0.111. With `COc1ccc(C)cc1NC(=O)C(Sc1nnc(-c2cccs2)o1)c1ccccc1` (configuration not stated), the z-score was determined as 0.187. `O=C(O)CCc1ccc(-c2ccc(F)cc2)n1NC(=O)c1ccco1` yielded a z-score of 0.168.

Regarding `CCCc1c(O)c2ccccc2[nH]c1=O`, the z-score worked out at 0.116. For `O=C(OCc1ccccc1F)c1ccc2c(c1)OCCO2`, the z-score was -0.955.

`Cc1[nH]nc(N=CC2=C(O)CC(C)(C)CC2=O)c1-c1ccc(Cl)cc1`: the z-score amounted to 0.222. Under `O=C(c1cnn2c(C(F)F)cc(-c3ccccc3)nc12)N1CCCc2ccccc21` stands -0.367; under `COc1ccccc1NCCC(=O)OCC(=O)NC1CCCCCC1`, 0.0591; under `Cc1ccn(C(=O)c2cc3c(C)nn(-c4ccccc4)c3s2)n1`, -0.42. The compound `CCN(CC)C(=O)CSc1nc2ncc(Br)cc2[nH]1` displayed a z-score of -0.274. Under `O=C(Nc1cccc(O)c1)c1noc2c1CCc1ccccc1-2` stands -0.219; under `COc1cc(NC(=S)NCCCN2CCOCC2)cc(OC)c1`, -0.0511. The value for `C1CSC2(N1)C1CC3CC(C1)CC2C3` (configuration not stated) was -0.916; that for `Cc1ccc2nc(N(CCCN(C)C)C(=O)c3ccc4c(c3)CCCC4)sc2c1` was -1.29; that for `O=C(NCc1cccc(Cl)c1)c1ccc(S(=O)(=O)Nc2cccc(C(F)(F)F)c2)cc1` was 0.186. `COc1ccc(S(=O)(=O)N2CCCC(C(=O)NCc3ccccn3)C2)cc1Cl` (configuration not stated): the z-score turned out to be 0.0643. Compound `COc1ccc(NC(=O)CCNC(=O)Cn2cnc3ccccc3c2=O)c(OC)c1` had a z-score of -0.512. `CCOC(=O)COn1c(SCC(=O)OCC)nc2ccccc2c1=O` had a z-score of 0.143. The value for `CNC(=O)CCC(=O)Nc1ccc(C(=O)OC)cc1` was -0.196; that for `N=C1C(=O)OCC1c1cc(Cl)ccc1NC(=O)Nc1ccccc1` (configuration not stated) was 0.0546; that for `O=C(Cn1nc(Cc2cccnc2)c2ccccc2c1=O)N1CCN(C(=O)c2ccco2)CC1` was -0.426. `CC(/C=N/NC(=O)c1ccncc1)=C\c1ccc(C(C)C)cc1`: the z-score was -0.0873. The compound `O=C(COC(=O)c1cccs1)c1ccccc1` came in with a z-score of 0.738. Compound `Cc1ccc(/C=N/NC(=O)c2ccccn2)s1` showed a z-score of 0.342. On to `CCOc1ccc2nc(NC(=O)CN3CCN(C)CC3)sc2c1`, for which the z-score was determined as 0.433. As for `CC(C)(C)NC(=O)c1cc(NC(=O)c2ccco2)cc(NC(=O)c2ccco2)c1`, the z-score worked out at 1.64. Turning to `Cc1c(C(=O)N(C)C)sc2nc(-c3ccccn3)[nH]c(=O)c12`, the z-score was -0.0644.

For `CC1CCCC(NC(=O)Cn2cc3c(n2)CCCCC3)C1C` (configuration not stated), the z-score was 0.237. `O=C(C[n+]1cc(-c2ccc(F)cc2)n2c1CCC2)Nc1nc(-c2ccccc2)cs1` returned a z-score of -0.217. Under `CCCOc1cccc(C2/C(=C(/O)c3ccccc3)C(=O)C(=O)N2CCN(C)C)c1` (configuration not stated) stands 0.738; under `COC(=O)C1=C(C)NC(=O)NC1c1cc(Cl)ccc1OC` (configuration not stated), -0.227; under `CCC1CCCCN1C(=O)C1CC(c2cc(Cl)c(OC)cc2OC)=NO1` (configuration not stated), -0.518. The value for `COc1ccccc1-c1nc2n(n1)C(c1ccccc1Cl)C(C(N)=O)=C(C)N2` (configuration not stated) was -0.224; that for `Cc1cccc(/C(N)=N/OC(=O)CCCN2C(=O)c3ccccc3C2=O)c1` was -0.0566; that for `CN(C)c1nc(N)nc(CSc2nnnn2-c2ccc(F)cc2)n1` was 0.047.

Consider `CN(C)c1nc(Nc2ccccc2)nc(Oc2ccc(=O)[nH]n2)n1`, for which the z-score was -0.00591.

`Cc1nc2ccccn2c1P(=Nc1ccccc1)(N(C)C)N(C)C` displayed a z-score of 0.266. `O=C(OC1CCN(c2ccc([N+](=O)[O-])cc2)CC1)c1ccccc1` showed a z-score of -0.193. As to `O=C(CSc1nnc(-c2ccncc2)o1)Nc1ccccc1Cl`, the z-score came to 1.13. The value for `Cc1cc(=O)oc2cc(Nc3ccccc3)ccc12` was -0.0811; that for `N#Cc1ccc(COC(=O)c2ccc3c(=O)[nH]c(CN4CCOCC4)nc3c2)cc1` was 0.508.

Compound `CCNC(=O)n1nccc1C(C)Oc1cccc(C(F)(F)F)c1` (configuration not stated) returned a z-score of 0.145.

Take `CSCc1cc(N2CCOCC2)nc(SCc2ccc(Cl)c(Cl)c2)n1`: the z-score is -0.0965. Regarding `COC(=O)c1cc(OC)c(OC)cc1NC(=O)CSc1ccc(C)cc1`, the z-score was -0.178. `COc1ccc(OC)c(-n2c(-c3ccccc3)n[nH]c2=S)c1` yielded a z-score of -0.134. The compound `Cc1cccc(OCCC(=O)Nc2ccc(S(=O)(=O)N3CCCC3)cc2)c1` registered a z-score of -0.642. `COc1ccccc1C(CC(=O)Nc1ccc(C)c(C)c1)c1ccc(OC(C)C)cc1` (configuration not stated) had a z-score of 0.0227. As for `COc1ccc(CCNC(=O)Cn2nnc(-c3cccc(OC)c3OC)n2)cc1OC`, the z-score came to 1.8. Under `COc1ccc(OCCSc2ncccn2)cc1` stands -0.163; under `O=C(O)c1ccc(COCC(F)(F)F)cc1`, -0.34. The compound `CCN1C(=O)/C(=C/c2nc3ccccc3c(=O)n2-c2ccccc2)c2ccccc21` registered a z-score of -0.148. `CC(=O)Nc1ccc(Nc2nc(C)c([N+](=O)[O-])c(Nc3ccccc3)n2)cc1` gave a z-score of -0.396.

The compound `CCOC(=O)C(O)(NC(=O)c1cccnc1)C(F)(F)F` (configuration not stated) came in with a z-score of 0.126. `O=C(COC(=O)c1ccc(Cl)nc1)Nc1ccc(S(=O)(=O)N2CCCC2)cc1` had a z-score of -0.776. Take `Cc1ccc(Cl)c2c1NC(=O)C2(O)CC(=O)c1ccc(Br)cc1` (configuration not stated): the z-score was -0.648. In the case of `CCOc1ccc(/C=C/C(=O)Nc2cccc(C(C)=O)c2)cc1`, the z-score was -0.188. For `COc1cc(C2NC(=O)NC(c3ccccc3)=C2C(C)=O)ccc1OCC#N` (configuration not stated), the z-score is -0.392.
